# Laboratory results published in paper PMC4336329 (PLoS ONE, 2015).
# Screen size: about 310,000 compounds; about 2,200 (0.71%) showed an effect of 50% or more. The effect is printed as a negative number. This is one part of the list.
# Target: human ether-à-go-go-related gene (hERG) potassium channel (human, UniProt Q12809)
# Assay: primary screen, population patch clamp on CHO cells stably expressing hERG
# Sequence of human ether-à-go-go-related gene (hERG) potassium channel (Q12809 whole entry, looked up): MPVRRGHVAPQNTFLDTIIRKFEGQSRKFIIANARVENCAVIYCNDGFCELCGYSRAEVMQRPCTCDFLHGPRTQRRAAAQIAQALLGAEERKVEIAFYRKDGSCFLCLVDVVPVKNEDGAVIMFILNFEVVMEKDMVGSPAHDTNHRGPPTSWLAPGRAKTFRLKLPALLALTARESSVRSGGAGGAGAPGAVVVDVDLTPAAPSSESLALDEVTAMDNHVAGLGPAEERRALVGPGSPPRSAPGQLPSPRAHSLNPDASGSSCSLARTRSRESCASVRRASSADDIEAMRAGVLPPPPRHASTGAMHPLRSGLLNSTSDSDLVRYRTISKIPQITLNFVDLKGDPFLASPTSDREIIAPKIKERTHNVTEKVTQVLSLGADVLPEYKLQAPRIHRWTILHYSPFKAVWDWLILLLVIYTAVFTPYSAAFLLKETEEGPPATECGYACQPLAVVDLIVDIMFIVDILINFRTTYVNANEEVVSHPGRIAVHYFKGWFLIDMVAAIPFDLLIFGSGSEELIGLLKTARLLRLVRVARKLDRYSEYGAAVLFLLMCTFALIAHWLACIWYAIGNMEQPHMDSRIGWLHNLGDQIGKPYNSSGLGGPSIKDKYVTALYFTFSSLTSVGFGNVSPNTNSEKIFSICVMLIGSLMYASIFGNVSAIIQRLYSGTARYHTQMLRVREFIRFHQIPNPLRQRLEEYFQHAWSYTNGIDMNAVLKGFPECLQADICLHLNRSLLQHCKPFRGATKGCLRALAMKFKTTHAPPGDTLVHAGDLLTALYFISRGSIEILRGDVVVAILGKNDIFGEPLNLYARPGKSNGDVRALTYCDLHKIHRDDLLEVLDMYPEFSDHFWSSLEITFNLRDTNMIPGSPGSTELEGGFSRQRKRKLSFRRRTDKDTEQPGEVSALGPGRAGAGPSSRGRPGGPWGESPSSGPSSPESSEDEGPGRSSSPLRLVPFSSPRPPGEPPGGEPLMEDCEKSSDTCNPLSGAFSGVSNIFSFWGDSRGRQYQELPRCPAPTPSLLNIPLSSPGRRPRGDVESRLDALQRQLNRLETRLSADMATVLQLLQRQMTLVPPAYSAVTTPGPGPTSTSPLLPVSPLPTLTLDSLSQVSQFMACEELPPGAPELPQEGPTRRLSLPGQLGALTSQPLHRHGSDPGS
row,Compound,"hERG current change (%, negative = inhibition) at 1uM"
1,CCOc1ccc2nc(NC(=O)C(NS(=O)(=O)c3cccs3)C(C)C)sc2c1 (centres unmarked),8.05%
2,CCOC(=O)N1CCC(=NNC(=O)COc2ccc(OC)cc2)CC1,9.72%
3,CC12COC3(C(=O)Nc4ccc5ccccc5c4)CC1CCC32C (centres unmarked),12.2%
4,CCc1ccc(NC(=O)CN2CCC(C(=O)c3ccc(OC)cc3)CC2)cc1,-3.64%
5,CN(C)c1nnnn1-c1ccc(Oc2ccccc2)cc1,-6.74%
6,COc1ccc(OC)c2c1cc(C(=O)N[C@H](C(=O)N1CCC[C@H]1C(=O)O)C(C)C)n2C,18.5%
7,COCCOC(=O)C1=C(N)Oc2c(c(=O)oc3ccccc23)[C@@]12C(=O)Nc1ccccc12,12.1%
8,CC(=O)c1ccc(-c2ccc(C(=O)NC3CC(C)(C)NC(C)(C)C3)o2)cc1,-71.1%
9,C/C(=N\NC(=O)c1cc(C)[nH]n1)c1cccs1,7.47%
10,O=C(/C=C/c1ccc(Cl)c([N+](=O)[O-])c1)Nc1ccc(N2CCCC2)c(Cl)c1,15.8%
11,CC1CCN(CCNC(=O)C2CCN(S(=O)(=O)c3cccc4nsnc34)CC2)CC1,-5.06%
12,c1ccc2c(c1)ncn2Cc1nnc2sc(-c3ccc4c(c3)OCO4)nn12,9.73%
13,CN(C)S(=O)(=O)c1ccc(NC(=O)N2CCOCC2)cc1,14.3%
14,COc1cc(CN2CCNC(=O)C2CC(=O)N(Cc2nccn2C)C(C)C)cc(OC)c1 (centres unmarked),10.1%
15,Cc1cc(C)nc(SCC(=O)Nc2cccc(S(=O)(=O)N(C)C)c2)n1,5.02%
16,COC(=O)c1ccc(CN(c2ccc(C(=O)O)c(O)c2)S(=O)(=O)c2ccc(Cl)c([N+](=O)[O-])c2)cc1,15.6%
17,CCC1CCCCN1CCCNC(=O)COc1cc(=O)n(C)c2ccccc12 (centres unmarked),8.4%
18,C#CCNC(=O)C1=C[C@H](C(C)(C)C)C[C@H](OCc2ccc(CO)cc2)O1,5.41%
19,CCn1c(=O)c2sccc2n2c(CCCC(=O)N3CCN(c4ccccn4)CC3)nnc12,15.1%
20,CC(=O)c1cccc(NC(=O)CC2CCCC2)c1,11.3%
21,CC1CCN(C(=O)CN2C(=O)COc3ccc(Cl)cc32)CC1,14.2%
22,CCN(CC)C(=O)NC1CCCCCCC1,14.7%
23,COc1ccc(C)cc1NC(=O)NCc1ccccc1F,1.39%

row,Compound,"hERG current change (%, negative = inhibition) at 1uM"
1,CO/N=C(/CNC(=O)c1ccc(Cl)cc1Cl)c1ccc(Cl)cc1,-2.43%
2,CCOC(=O)C1CCN(C(=O)CCc2nnc3ccc(N4CCC(C)CC4)nn23)CC1,-8.48%
3,CCNC(=S)N(CCCN(CC)CC)Cc1cc2cc3c(cc2[nH]c1=O)OCO3,9.28%
4,CC(C)(C)C(O)CN1CCCC1.Cl (centres unmarked),5.11%
5,O=Cc1ccc(N2CCCCC2)cc1,9.83%
6,CCN1CCN(C(=O)Nc2ccccc2OC)CC1.O=C(O)C(=O)O,6.25%
7,c1ccc(Nc2nc(-c3ccccc3)nc3ccccc23)cc1,13.5%
8,FC(F)Oc1cccc2cccnc12,5.7%
9,Cn1c(NC(=O)c2ccc(S(=O)(=O)N3CCOCC3)cc2)cc(=O)n(C)c1=O,5.35%
10,O=C(NCCN1CCN(S(=O)(=O)c2ccccc2)CC1)C(=O)Nc1ccc(F)cc1,8.68%
11,O=C(CSc1ncnc2nc[nH]c12)c1ccc2ccccc2c1,8.36%
12,CCOC(=O)c1c(-c2ccccc2)oc2ccc(OCC(=O)NNC(=O)CCC(=O)O)cc12,16.3%
13,COc1ccc(C2/C(=C(\O)c3cccc(OC)c3)C(=O)C(=O)N2c2ccccn2)cc1 (centres unmarked),0.101%
14,Cc1oc(-c2cccs2)nc1CN1CCC(C(=O)N2CCCC2)CC1,3.24%
15,COc1ccc(N2CCN(C(=O)Cc3ccc(OC)c(OC)c3)CC2)cc1,16.2%
16,Nc1sc(-c2ccccc2)cc1C(=O)N/N=C/c1ccc(Cl)cc1,8.22%
17,CC1CCCCN1C(=S)NC(=O)c1cccs1 (centres unmarked),13.1%
18,Cc1c(NC(=O)c2ccc(-c3cccc([N+](=O)[O-])c3)o2)c(=O)n(-c2ccccc2)n1C,7.82%
19,COC(=O)c1cc(C(=O)OCC(=O)NC2CCCCCCC2)cc([N+](=O)[O-])c1,5.85%
20,COCCN1C(=O)C(=O)/C(=C(/O)c2ccc(S(=O)(=O)N3CCOCC3)cc2)C1c1cccc([N+](=O)[O-])c1 (centres unmarked),14.4%
21,Cc1ccccc1CSc1nnc(-c2ccccn2)n1C,10.8%
22,COc1ccc(C(=O)c2c[nH]c(C(=O)NCC3CCCO3)c2)cc1 (centres unmarked),3.6%
23,CCc1cccc(C)c1NC(=S)NCC(c1cccnc1)N(C)C (centres unmarked),8.72%

row,Compound,"hERG current change (%, negative = inhibition) at 1uM"
1,Cc1ccc(-n2c(SCC(=O)NCc3cccs3)nnc2-c2ccoc2C)cc1,-16.5%
2,COc1ccc(-c2cc3c(=O)n(CC(=O)N4CCCCC4)ncn3n2)cc1,16.6%
3,CC(C)Oc1ccc(C(=O)Nc2ncn[nH]2)cc1,13.2%
4,CC1(C)Cc2c(sc3c2C(=O)NC(c2cccnc2)N3)CO1 (centres unmarked),3.36%
5,Cc1ccc(CNC(=O)CSc2ccc(-c3ccccn3)nn2)cc1,6.71%
6,C[n+]1cccc(/C=N/NC(=O)CC23CC4CC(CC(C4)C2)C3)c1.[I-],12%
7,O=c1cc(CSc2nc(NCc3ccccc3)c3ccccc3n2)nc2ccc(Cl)cn12,-30.2%
8,CCCCN1C(=O)C(NC(C)=O)c2cc(Br)ccc21 (centres unmarked),-0.178%
9,COc1ccc2c(c1)C(c1ccc([N+](=O)[O-])cc1)=NNC(c1ccco1)=N2,-19%
10,CC(C)n1c(CN2CCN(C)CC2)nc2c1c(=O)n(C)c(=O)n2C,12.3%
11,O=C(N/C(=C\c1cccnc1)c1nc2ccccc2[nH]1)c1cccc(Br)c1,-3.04%
12,Cc1ccc(NC2CCCN(C(=O)CCc3cn[nH]c3)C2)cc1C (centres unmarked),7.09%
13,CC(=O)c1c(C)[nH]c(C(=O)Nc2cc(C)ccc2C)c1C,4.2%
14,O=C(CCl)Nc1ccccc1C(=O)NCc1ccccc1,14.3%
15,Cc1sc2ncnc(SCC(=O)N3CCCC(C(F)(F)F)C3)c2c1C (centres unmarked),3.21%
16,O=C(Nc1ccc(Br)cc1F)c1sccc1-n1cccc1,10.3%
17,O=C(NCc1ccccn1)C1COc2ccccc2O1 (centres unmarked),10.3%
18,CC(=O)c1ccc(N2CCN(C(=O)C3CCN(S(=O)(=O)c4ccc5c(c4)CC(C)N5C(=O)C4CC4)CC3)CC2)cc1 (centres unmarked),-4.91%
19,CCN1C(=O)N(CC)C(O)(c2ccccc2)C1(O)c1ccccc1 (centres unmarked),5.39%
20,CCOc1ccccc1C(=O)Nc1nnc(SCC(=O)N2CCOCC2)s1,15.5%
21,CCN(CC(=O)NCc1cccs1)C(=O)CCC(=O)c1ccc(F)cc1,-34.5%
22,CC(=O)N1CCN(c2ccc(NC(=S)NC(=O)c3ccccc3)cc2)CC1,5.91%
23,CCc1ccc(-c2nc(SCC(=O)NC3CCCC3)n[nH]2)cc1,9.28%

row,Compound,"hERG current change (%, negative = inhibition) at 1uM"
1,CC1(C)CC2CC(C)(CN2c2ncnc3ccccc23)C1 (centres unmarked),-1.85%
2,CC(C)CC(c1nnnn1Cc1ccco1)N1CCN(c2cccc(Cl)c2)CC1 (centres unmarked),12.6%
3,COc1ccc(NC(=O)CSc2nc(-c3ccco3)nc3cc(=O)[nH]n23)cc1Cl,0.811%
4,Cc1ccc(S(=O)(=O)n2c(C)nc3cc(C)ccc32)cc1,3.93%
5,O=C(COc1cccc2ccccc12)N1CCN(c2ccccc2)CC1,10.5%
6,C/C(=N\NC(=O)c1nnn(-c2nonc2N)c1-c1cccs1)c1ccc(C)cc1,-3.6%
7,CCN1CCc2nc(N)oc2CC1.Cl,5.81%
8,COc1ccc(/C=N/NC(=S)Nc2ccccc2)cc1,19.4%
9,O=C(CCN=C1NS(=O)(=O)c2ccccc21)Nc1ccc(Cl)cc1F,15.3%
10,Cc1cc(NC(=O)Nc2ccc(Cl)c(Cl)c2)no1,8.41%
11,COc1cc(S(=O)(=O)Nc2ccccn2)ccc1F,9.64%
12,CC(=O)OCC(=O)N1CCN(c2ccc([N+](=O)[O-])cc2)CC1,-11.8%
13,O=C(CN1CCOC1=O)N1CCCC(N2CCN(c3cccc(C(F)(F)F)c3)CC2)C1 (centres unmarked),6.7%
14,C=CCNC(=S)NNC(=O)Cn1c(-c2ccccc2)cc(=O)n2ncnc12,11.1%
15,COc1ccc(CCN=C(N)NS(=O)(=O)c2ccc(OC)c(OC)c2)cc1OC,6.25%
16,O=P(O)(c1ccccc1)c1ccccc1O,-4.6%
17,COc1ccc(NC2C=CS(=O)(=O)C2)c(OC)c1 (centres unmarked),13.8%
18,O=C(c1cccc([N+](=O)[O-])c1)c1ccc2[nH]c(=O)[nH]c2c1,15%
19,O=S(=O)(/N=C(/NC(=S)Nc1ccccc1)c1ccccc1)c1ccc(Cl)cc1,13.7%
20,COCCNC(=S)N(CCc1c(C)[nH]c2ccc(F)cc12)Cc1cccs1,14.3%
